# According to PubChem BioAssay AID1508623 (National Center for Advancing Translational Sciences (NCATS), 2021):
# Out of some 48,000 compounds screened, about 450 (0.94%) were called active. Inconclusive means that the source gave no clear call. Such entries were picked first, then a sample of the others. Calls follow the shape of the dose curve; as a rule, active = well fitted inhibition curve with a large enough effect; inconclusive = small, poorly fitted or top-dose-only effect; inactive = no such curve, though single readings can be large or run the other way. A potency beside an inconclusive call is a rough fit, not a confirmed value.
# Experiment: Primary qHTS for Identification of Small Molecule Inhibitors of Huntingtin Promoter Activity; also: nearly all actives have a fitted effect of over 50% in size
# Conditions: HEK293 HTT promoter firefly luciferase reporter (activity 0% = vehicle and -100% = no light), 24 h; activity change, negative = inhibition: at 57.5 µM (top of the series)
# Outline: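 Firefly luciferase readout (Dual-Glo, 10 min RT) after 24 h, 37 °C compound exposure (final up to 57.5 uM) of HEK293 reporter cells cultured 24 h beforehand; PTC124 at 50 uM final as control inhibitor; activity scaled vehicle 0%, zero RLU -100%.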
# Potency is read from the fitted curve at half-maximal effect; tags tell the direction and shape of the fitted curve.
SMILES,Potency,"activity change, negative = inhibition"
O=C(c1ccc(Br)cc1)N1CCC(c2nc3ccccc3s2)CC1,inactive,–
CCCc1cc(N2CCN(c3ccccc3F)CC2)n2cnnc2n1,"inconclusive: 14.1 µM [inhibitor, partial curve, poor fit]",–
CCOc1ccc(NC(=O)CSc2oc(-c3ccco3)nc2S(=O)(=O)c2ccccc2)cc1,"inconclusive: 31.6 µM [inhibitor, single point]",–
CC(C)(Oc1ccc(Cl)cc1)C(=O)OCCCOC(=O)C(C)(C)Oc1ccc(Cl)cc1,inactive,–
O=C(NCCc1ccccc1)c1ccc2c(c1)nc1n2CCOC1,"inconclusive: 39.8 µM [inhibitor, single point]",–
CCOC(=O)c1oc2c(c1C)-c1nn(Cc3cccc(Cl)c3)cc1CC2,"inconclusive: 28.2 µM [inhibitor, single point]",–
O=C(CCS(=O)(=O)c1ccc(Br)s1)Nc1cc(C(F)(F)F)cc(C(F)(F)F)c1,"inconclusive: 39.8 µM [inhibitor, single point]",–
O=C(NCc1ccccc1)NC1COc2ccccc2C1 (stereo unspecified),inactive,–
CCOc1ccccc1NC(=O)CSc1ncc2c(n1)-c1ccccc1N(CC)S2(=O)=O,"inconclusive: 31.6 µM [inhibitor, single point]",–
Cc1ccccc1Nc1c(-c2ccc(N3CCOCC3)cc2)nc2cccc(C)n12,inactive,–
CCCCn1c(CCCNC(=O)c2cccc(C)c2)nc2ccccc21,"inconclusive: 28.2 µM [inhibitor, single point]",–
Cc1nc2cc(-c3cccc(F)c3)nn2c(C)c1CCC(=O)Nc1ccccc1C(N)=O,active: 2.24 µM,–
COc1cc(N)c(Cl)cc1C(=O)NC1CCN(CCCOc2ccc(F)cc2)CC1OC (stereo unspecified),inactive,–
Cc1cccc(NC(=O)c2ccc(CN3CC(=O)N4CCCCC4C3=O)cc2)c1C (stereo unspecified),inactive,–
COc1ccc(CNc2nc(-c3ccc(Cl)cc3)cc(C(F)(F)F)n2)cc1,"inconclusive: 28.2 µM [inhibitor, single point]",–
COC(=O)c1c(-c2ccc(Cl)cc2)noc1N1CCN(c2ccccc2OC)CC1,"inconclusive: 39.8 µM [inhibitor, single point]",–
COc1ccccc1S(=O)(=O)Cc1ccc(C(=O)N2CCN(c3cc(Cl)ccc3C)CC2)o1,"inconclusive: 39.8 µM [inhibitor, single point]",–
CCOc1ccccc1N1CC(c2nc3ccccc3n2CCCOc2ccc(OC)cc2)CC1=O (stereo unspecified),inactive,–
CC(C)OCCCN1C(=O)c2[nH]nc(-c3ccccc3O)c2C1c1ccccc1F (stereo unspecified),"inconclusive: 22.4 µM [inhibitor, single point]",–
O=C(NCC1CCN(Cc2cccc(Cl)c2)CC1)Nc1ccc(F)c(Cl)c1,"inconclusive: 20 µM [inhibitor, single point]",–
CC(C)(C)c1ccc(C(=O)N2CCCC(c3nc4c(nnn4Cc4cccc(F)c4)c(=O)[nH]3)C2)cc1 (stereo unspecified),"inconclusive: 28.2 µM [inhibitor, single point]",–

SMILES,Potency,"activity change, negative = inhibition"
Cc1ccc(-c2cn3nc(N4CCCC(C(=O)NCc5ccc(F)cc5)C4)sc3n2)cc1 (stereo unspecified),"inconclusive: 10 µM [inhibitor, partial curve]",–
Cc1cc(C)cc(NC(=O)Cn2c(=O)n(-c3ccc(C)c(C)c3)c(=O)c3oc4ccccc4c32)c1,"inconclusive: 31.6 µM [inhibitor, partial curve, poor fit]",–
COc1ccc(N2CCN(Cc3nc4c(c(=O)n(C)c(=O)n4C)n3C(C)C)CC2)cc1,"inconclusive: 3.16 µM [inhibitor, partial curve]",–
CCOc1ccccc1C(=O)N1CCc2cc(OC)c(OC)cc2C1COc1ccc(OC)cc1 (stereo unspecified),"inconclusive: 22.4 µM [inhibitor, single point]",–
CC(C)CC(=O)Nc1ccc2nc(SCC(=O)N3CCOCC3)sc2c1,"inconclusive: 39.8 µM [inhibitor, single point]",–
CCOC(=O)c1cc(-c2ccc(F)cc2)n(CCC(=O)Nc2cc(OC)cc(OC)c2)c1C,"inconclusive: 15.8 µM [inhibitor, partial curve, poor fit]",–
Cc1ccc(-c2c3c(=O)n(C)c(=O)n(C)c3c3c(-c4cccc(C)c4)nc4ccccc4n23)cc1,–,inactive: -10.4% [at 11.5 µM]
Cc1cc(C)c(S(=O)(=O)NCC2CCC(C(=O)NCCc3ccccc3)CC2)c(C)c1 (stereo unspecified),"inconclusive: 20 µM [inhibitor, partial curve, poor fit]",–
COc1ccc(CN(Cc2ccco2)C(=O)COc2ccccc2Cl)cc1,"inconclusive: 25.1 µM [inhibitor, single point]",–
O[C@@H](COc1cccc2ncccc12)CN1CCN(C2c3ccccc3[C@@H]3[C@H](c4ccccc42)C3(F)F)CC1 (stereo partly specified),"inconclusive: 3.55 µM [inhibitor, partial curve, poor fit]",–
C=CC(=O)N1CCc2ccc(-n3c(=O)ccc4cnc5ccc(-c6cnn(C)c6)cc5c43)cc21,"inconclusive: 7.69 µM [inhibitor, full curve]",–
FC(F)(F)c1cccc(Nc2nc3nonc3nc2Nc2ccc(Cl)cc2)c1,active: 0.355 µM,–
Cc1nc(-c2ccc(S(=O)(=O)N3CCN(c4ccccc4F)CC3)cc2)co1,"inconclusive: 31.6 µM [inhibitor, single point]",–
CC(=O)Nc1cccc(NC(=O)CSc2nccn2Cc2ccccc2)c1,"inconclusive: 25.1 µM [inhibitor, partial curve, poor fit]",–
Cc1cc(Nc2cc(Cl)ccc2C)n2nc(-c3ccccc3)nc2n1,"inconclusive: 39.8 µM [inhibitor, single point]",–
Cc1cc(C)c2c(NC(=O)c3ccccc3Cl)c(C(=O)NCc3ccc(Cl)cc3)sc2n1,"inconclusive: 39.8 µM [inhibitor, single point]",–
COc1ccc(OCCCn2c(C3CC(=O)N(c4ccc(F)cc4)C3)nc3ccccc32)cc1 (stereo unspecified),"inconclusive: 28.2 µM [inhibitor, single point]",–
CCOc1cccc2sc(N3CCN(C(=O)c4ccco4)CC3)nc12,inactive,–
CCOC(=O)CC(NC(=O)Cn1nnc(-c2ccc(Cl)cc2)n1)c1ccc(OC)cc1 (stereo unspecified),"inconclusive: 39.8 µM [inhibitor, single point]",–
COc1cccc(NC(=O)N(Cc2c[nH]c3ccccc23)C2CCCCCC2)c1,inactive,–
CCn1c(C(=O)Nc2c(C)cccc2C)cc2sc(Cl)cc21,"inconclusive: 39.8 µM [inhibitor, single point]",–

SMILES,Potency,"activity change, negative = inhibition"
COc1cccc(-c2noc(COc3ccc(C(C)(C)C)cc3)n2)c1,inactive,–
Cc1ccccc1NS(=O)(=O)c1ccc2[nH]cc(C(=O)NC3CCCCC3)c(=O)c2c1,"inconclusive: 35.5 µM [inhibitor, partial curve, poor fit]",–
CCOC(=O)c1c(C)oc2nc(C)nc(N3CCN(c4cc(Cl)ccc4C)CC3)c12,"inconclusive: 39.8 µM [inhibitor, single point]",–
COc1ccc(C)cc1NC(=O)Cn1c(=O)oc2cc(S(=O)(=O)N3CCCCC3)ccc21,"inconclusive: 39.8 µM [inhibitor, single point]",–
O=C(Cc1ccccc1)N(Cc1cccnc1)c1nc2c(Cl)cccc2s1,"inconclusive: 31.6 µM [inhibitor, single point]",–
CCc1nnc(SC(CC)C(=O)Nc2ccc(OC)c(Cl)c2)c2cc3occc3n12 (stereo unspecified),"inconclusive: 28.2 µM [inhibitor, single point]",–
COc1ccccc1CNC(=O)CCCn1c(=O)c2ccccc2n(Cc2ccc(F)cc2)c1=O,"inconclusive: 28.2 µM [inhibitor, single point]",–
COc1ccccc1NC(=O)c1c(C)cc(C)nc1SCC(=O)Nc1ccc(C)c(C)c1,"inconclusive: 12.6 µM [inhibitor, partial curve, poor fit]",–
Cc1cc(C)c(NS(=O)(=O)c2ccc3c(c2)CC(C)N3C(=O)C2CCC2)c(C)c1 (stereo unspecified),"inconclusive: 28.2 µM [inhibitor, partial curve, poor fit]",–
CCCCNS(=O)(=O)c1ccc(N2CCCCS2(=O)=O)cc1,"inconclusive: 12.6 µM [inhibitor, partial curve, poor fit]",–
CCc1ccc(N(CC)C(=O)CCn2cnc3onc(-c4ccc(F)cc4)c3c2=O)cc1,"inconclusive: 20 µM [inhibitor, single point]",–
COc1ccccc1-c1noc(-c2ccc(N3CCN(C)CC3)c([N+](=O)[O-])c2)n1,"inconclusive: 1.78 µM [inhibitor, full curve, poor fit]",–
COc1ccc(NC(=O)c2c(NCc3cccs3)sc3c2CCCC3)c(OC)c1,"inconclusive: 25.1 µM [inhibitor, single point]",–
CCCOc1ccc(CNC(=O)c2ccc3c(c2)N(Cc2ccccc2)CCS3)cc1,"inconclusive: 31.6 µM [inhibitor, partial curve, poor fit]",–
CCN1CCN(CCCNC(=O)c2cnn(-c3ccccc3Cl)c2C2CCN(C(=O)OC(C)(C)C)CC2)CC1,inactive,–
COc1ccc(Nc2cc(-c3cnc(N)nc3)nc(N3CCOCC3)n2)cn1,"inconclusive: 3.43 µM [inhibitor, full curve]",–
Cc1cc(F)ccc1NC(=O)C1CCN(C(=O)c2cnn(-c3ccccc3)c2-n2cccc2)CC1,"inconclusive: 31.6 µM [inhibitor, partial curve]",–
CCCCCCCCCCCCCC(=O)N[C@H](CO)[C@H](O)c1ccc([N+](=O)[O-])cc1,inactive,–
O=C(CCC1N=C2c3ccccc3N=C(SCc3cccc(F)c3)N2C1=O)NCCc1ccccc1 (stereo unspecified),"inconclusive: 39.8 µM [inhibitor, single point]",–
